Laboratory results reported in the supplement of paper PMC4967469.
Lines with a small IC50 respond at low doses; a limit (>, <) means that the fit lies beyond the doses tested. The AUC spans the tested range (256-fold, ending at the top dose) of the same fit; values near 1 show little effect. For some of these results: The top dose, if marked as inferred, is not printed in the source and was worked back from the curve model.

Assays:
Assay in all cases: Viability of human cancer cell lines after 72 h of drug (GDSC screen)
Lapatinib = compound: CS(=O)(=O)CCNCc1ccc(-c2ccc3ncnc(Nc4ccc(OCc5cccc(F)c5)c(Cl)c4)c3c2)o1 [Lapatinib]; conditions: top dose 2 µM
Protocol: (§1)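 Human cancer cell lines in 384-well plates, medium with 10% serum, drug for 72 h over a 256-fold dose range (nine 2-fold or five 4-fold steps up to the top dose). Adherent lines were fixed and stained with the nucleic acid dye Syto60, suspension lines read with resazurin; signal relative to control wells, capped at 0 and 100%. One two-parameter sigmoid per drug and line, fitted in a mixed model over all curves with the slope shared within a line.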

TGX221 = compound: Cc1cc(C(C)Nc2ccccc2)c2nc(N3CCOCC3)cc(=O)n2c1 [TGX221]; conditions: top dose 10 µM
Protocol: as §1

SB590885 = compound: CN(C)CCOc1ccc(-c2nc(-c3ccncc3)c(-c3ccc4c(c3)CC/C4=N\O)[nH]2)cc1 [SB590885]; conditions: top dose 5 µM; top dose inferred
Protocol: as §1

PD-173074 = compound: CCN(CC)CCCCNc1ncc2cc(-c3cc(OC)cc(OC)c3)c(NC(=O)NC(C)(C)C)nc2n1 [PD-173074]; conditions: top dose 2 µM; top dose inferred
Protocol: as §1

Row | Cell Line | AUC (Lapatinib) | IC50 (Lapatinib) [µM] | AUC (TGX221) | IC50 (TGX221) [µM] | AUC (SB590885) | IC50 (SB590885) [µM] | AUC (PD-173074) | IC50 (PD-173074) [µM]
1 | MOLM-13 (acute myeloid leukaemia, suspension) | 0.98 | > 2 | 0.911 | > 10 | 0.974 | > 5 | 0.966 | > 2
2 | MOLP-8 (myeloma, suspension) | 0.917 | > 2 | 0.96 | > 10 | 0.951 | > 5 | 0.981 | > 2
3 | MONO-MAC-6 (acute myeloid leukaemia, suspension) | 0.958 | > 2 | 0.949 | > 10 | 0.964 | > 5 | 0.94 | > 2
4 | MPP-89 (mesothelioma, adherent) | 0.929 | > 2 | 0.773 | 5.13 | 0.981 | > 5 | 0.926 | > 2
5 | MRK-nu-1 (breast, suspension) | 0.977 | > 2 | 0.903 | > 10 | 0.99 | > 5 | 0.988 | > 2
6 | MS-1 (small cell lung carcinoma, suspension) | 0.981 | > 2 | 0.99 | > 10 | 0.991 | > 5 | 0.989 | > 2
7 | MSTO-211H (mesothelioma, adherent) | 0.984 | > 2 | 0.97 | > 10 | 0.99 | > 5 | 0.825 | 1.05
8 | MY-M12 (leukaemia, suspension) | 0.979 | > 2 | 0.959 | > 10 | 0.977 | > 5 | 0.968 | > 2
9 | MZ1-PC (pancreas, adherent) | 0.945 | > 2 | 0.945 | > 10 | 0.975 | > 5 | 0.962 | > 2
10 | MZ7-mel (melanoma, adherent) | 0.983 | > 2 | 0.903 | > 10 | 0.857 | 4.28 | 0.987 | > 2
11 | Mo-T (hairy cell leukaemia, suspension) | 0.987 | > 2 | 0.987 | > 10 | 0.988 | > 5 | 0.983 | > 2
12 | NALM-6 (B-cell leukaemia, suspension) | 0.971 | > 2 | 0.95 | > 10 | 0.982 | > 5 | 0.968 | > 2
13 | NAMALWA (Burkitt lymphoma, suspension) | 0.986 | > 2 | 0.987 | > 10 | 0.979 | > 5 | 0.985 | > 2
14 | NB1 (neuroblastoma, semi-adherent) | 0.972 | > 2 | 0.975 | > 10 | 0.982 | > 5 | 0.983 | > 2
15 | NB5 (neuroblastoma, adherent) | 0.92 | > 2 | 0.987 | > 10 | 0.972 | > 5 | 0.986 | > 2
16 | NB6 (neuroblastoma, adherent) | 0.982 | > 2 | 0.984 | > 10 | 0.984 | > 5 | 0.984 | > 2
17 | NB7 (neuroblastoma, adherent) | 0.966 | > 2 | 0.956 | > 10 | 0.986 | > 5 | 0.986 | > 2
18 | NB10 (neuroblastoma, adherent) | 0.986 | > 2 | 0.987 | > 10 | 0.988 | > 5 | 0.968 | > 2
19 | NB12 (neuroblastoma, adherent) | 0.967 | > 2 | 0.975 | > 10 | 0.976 | > 5 | 0.979 | > 2
20 | NB13 (neuroblastoma, adherent) | 0.99 | > 2 | 0.99 | > 10 | 0.99 | > 5 | 0.99 | > 2
21 | NB14 (neuroblastoma, adherent) | 0.989 | > 2 | 0.985 | > 10 | 0.989 | > 5 | 0.989 | > 2
22 | NB17 (neuroblastoma, adherent) | 0.974 | > 2 | 0.982 | > 10 | 0.983 | > 5 | 0.982 | > 2
23 | NB69 (neuroblastoma, adherent) | 0.985 | > 2 | 0.989 | > 10 | 0.98 | > 5 | 0.959 | > 2
24 | NB(TU)1-10 (neuroblastoma, adherent) | 0.991 | > 2 | 0.993 | > 10 | 0.962 | > 5 | 0.964 | > 2
25 | NB-4 (acute myeloid leukaemia, suspension) | 0.991 | > 2 | 0.955 | > 10 | 0.953 | > 5 | 0.976 | > 2
26 | NCI-H64 (small cell lung carcinoma, suspension) | 0.996 | > 2 | 0.996 | > 10 | 0.996 | > 5 | 0.996 | > 2
27 | NCI-H69 (small cell lung carcinoma, suspension) | 0.975 | > 2 | 0.965 | > 10 | 0.986 | > 5 | 0.986 | > 2
28 | NCI-H82 (small cell lung carcinoma, suspension) | 0.968 | > 2 | 0.985 | > 10 | 0.979 | > 5 | 0.982 | > 2
29 | NCI-H209 (small cell lung carcinoma, suspension) | 0.986 | > 2 | 0.976 | > 10 | 0.981 | > 5 | 0.879 | > 2
